In patent publication US20220073613A1, “ACTIVATABLE MASKED ANTI-CTLA4 BINDING PROTEINS” (Xilio Development, Inc., priority 2018, published 2022):

Tests used:
[1] = In vivo cleavage of masked antibodies in plasma of MC38 tumor-bearing mice, Western blot; parameters: species or system C57BL/6J mice; conditions: MC38-bearing mice, 200 μg i.p., days 2, 4, 7
Description: MC38 cells (1×10^6) were injected subcutaneously into seven-eight week old female C57BL/6J mice subcutaneously. On day 0, the mice were randomized based on tumor volume measurements and injected intraperitoneally with 200 μg of Antibody 2 constructs. Blood was collected via RO sinus on days two and four and processed with LiHep for plasma isolation. On day seven, blood was collected via cardiac puncture and process with LiHep for plasma isolation. Plasma was aliquoted and stored at −80 C until Western blot analysis. Standard samples where the masked antibody was treated in the presence or absence of protease in vitro were included as positive controls. For Western blot analysis, plasma samples were diluted in PBS, then in Laemmli Sample Buffer and βME. Samples were heated at 95° C. then loaded on a Criterion TGX Stain-free Precast gel. SDS-PAGE was performed at 200 V for forty-two minutes. Protein was transferred to nitrocellulose membrane and blocked in 1×TBS with 1% Casein Blocker for one hour at room temperature shaking. The membrane was probed with HRP-conjugated Rb mAb to human Kappa Light Chain [clone EPR5367-8], diluted 1:10,000 in Casein Blocker, overnight at 4° C. shaking. The membrane was washed three times with PBS-Tween and developed with SuperSignal ELISA Pico Chemiluminescent Substrate. Raw data was analyzed with ImageLab software.
(§1) In vivo experiment was performed in two cohorts across two weeks, with Antibody 2-14 included in both cohorts. Antibodies that were tested include Antibody 2-14, Antibody 2-15, Antibody 2-16, Antibody 2-17, Antibody 2-18, Antibody 2-19, Antibody 2-20, and Antibody 2-21. Antibody 2-15 includes a cleavable peptide sequence that is non-cleavable, for use as a negative control.

[2] = In vivo cleavage of masked antibodies in plasma of healthy mice, Western blot; parameters: species or system C57BL/6J mice; conditions: 200 μg i.p., days 2, 4, 7
Description: Healthy, non-tumor bearing, seven-eight week old female C57BL/6J mice were injected intraperitoneally on day 0 with 200 μg of masked forms of Antibody 2. On days two and four, blood was collected via RO sinus and processed with LiHep for plasma isolation. On day seven, blood was collected via cardiac puncture and processed with LiHep for plasma isolation. Plasma was aliquoted and stored at −80° C. until Western blot analysis. Standard samples where the masked antibody was treated in the presence or absence of protease in vitro were included as positive controls. For Western blot analysis, plasma samples were diluted in PBS, then in Laemmli Sample Buffer and βME. Samples were heated at 95° C. then loaded on a Criterion TGX Stain-free Precast gel. SDS-PAGE was performed at 200 V for forty-two minutes. Protein was transferred to nitrocellulose membrane and blocked in 1×TBS with 1% Casein Blocker for one hour at room temperature shaking. The membrane was probed with HRP-conjugated Rb mAb to human Kappa Light Chain [clone EPR5367-8], diluted 1:10,000 in Casein Blocker, overnight at 4° C. shaking. The membrane was washed three times with PBS-Tween and developed with SuperSignal ELISA Pico Chemiluminescent Substrate. Raw data was analyzed with ImageLab software. Activation percentage was calculated as follows: the intensity of the activated band/(intensity of the activated band+intensity of the masked non-activated band)*100%.
as §1

Molecule	activation in vivo (cleavage in plasma) [1]	activation in vivo (cleavage in plasma) [2]
Antibody 2-20: masked Antibody 2-6: mask CPFPALELC, cleavable peptide RAAAVKSP; SEQ ID NO: 429 and 421 (protein) light: ACPFPALELCGGSSPPRAAAVKSPSGGEIVLTQSPDFQSVTPKEKVTITCSANSALSYMYWYQQKPDQSPKLWVHGTSNLASGVPSRFSGSGSGTDFTLTINSLEAEDAATYYCHHWSNTQWTFGGGTKVEIKRTVAAPSVFIFPPSDEQLKSGTASVVCLLNNFYPREAKVQWKVDNALQSGNSQESVTEQDSKDSTYSLSSTLTLSKADYEKHKVYACEVTHQGLSSPVTKSFNRGEC heavy: QVQLVQSGAEVKKPGSSVKVSCKASGYTFTNYFMNWVRQAPGQGLEWMGRVDPEQGRADYAEKFKKRVTITADKSTSTAYMELSSLRSEDTAVYYCARRAMDNYGFAYWGQGTLVTVSS[human IgG1 constant region with changes left out here]	activated in vivo	activated in vivo
Antibody 2-19: masked Antibody 2-6: mask CPFPALELC, cleavable peptide HEQLTV; SEQ ID NO: 426 and 421 (protein) light: ACPFPALELCGGSSPPHEQLTVSGGEIVLTQSPDFQSVTPKEKVTITCSANSALSYMYWYQQKPDQSPKLWVHGTSNLASGVPSRFSGSGSGTDFTLTINSLEAEDAATYYCHHWSNTQWTFGGGTKVEIKRTVAAPSVFIFPPSDEQLKSGTASVVCLLNNFYPREAKVQWKVDNALQSGNSQESVTEQDSKDSTYSLSSTLTLSKADYEKHKVYACEVTHQGLSSPVTKSFNRGEC heavy: QVQLVQSGAEVKKPGSSVKVSCKASGYTFTNYFMNWVRQAPGQGLEWMGRVDPEQGRADYAEKFKKRVTITADKSTSTAYMELSSLRSEDTAVYYCARRAMDNYGFAYWGQGTLVTVSS[human IgG1 constant region with changes left out here]	not detected	not detected
Antibody 2-17: masked Antibody 2-6: mask CPFPALELC, cleavable peptide GGIGQLTA; SEQ ID NO: 428 and 421 (protein) light: ACPFPALELCSSPSPSGGGGIGQLTASGGEIVLTQSPDFQSVTPKEKVTITCSANSALSYMYWYQQKPDQSPKLWVHGTSNLASGVPSRFSGSGSGTDFTLTINSLEAEDAATYYCHHWSNTQWTFGGGTKVEIKRTVAAPSVFIFPPSDEQLKSGTASVVCLLNNFYPREAKVQWKVDNALQSGNSQESVTEQDSKDSTYSLSSTLTLSKADYEKHKVYACEVTHQGLSSPVTKSFNRGEC heavy: QVQLVQSGAEVKKPGSSVKVSCKASGYTFTNYFMNWVRQAPGQGLEWMGRVDPEQGRADYAEKFKKRVTITADKSTSTAYMELSSLRSEDTAVYYCARRAMDNYGFAYWGQGTLVTVSS[human IgG1 constant region with changes left out here]	not detected	not detected
Antibody 2-18: masked Antibody 2-6: mask CPFPALELC, cleavable peptide MPYDLYHP; SEQ ID NO: 425 and 421 (protein) light: ACPFPALELCGGPGSSPMPYDLYHPSGGEIVLTQSPDFQSVTPKEKVTITCSANSALSYMYWYQQKPDQSPKLWVHGTSNLASGVPSRFSGSGSGTDFTLTINSLEAEDAATYYCHHWSNTQWTFGGGTKVEIKRTVAAPSVFIFPPSDEQLKSGTASVVCLLNNFYPREAKVQWKVDNALQSGNSQESVTEQDSKDSTYSLSSTLTLSKADYEKHKVYACEVTHQGLSSPVTKSFNRGEC heavy: QVQLVQSGAEVKKPGSSVKVSCKASGYTFTNYFMNWVRQAPGQGLEWMGRVDPEQGRADYAEKFKKRVTITADKSTSTAYMELSSLRSEDTAVYYCARRAMDNYGFAYWGQGTLVTVSS[human IgG1 constant region with changes left out here]	not detected	not detected
Antibody 2-21: masked Antibody 2-6: mask CPFPALELC, cleavable peptide TSVLMAAP; SEQ ID NO: 430 and 421 (protein) light: ACPFPALELCGGSSPPTSVLMAAPSGGEIVLTQSPDFQSVTPKEKVTITCSANSALSYMYWYQQKPDQSPKLWVHGTSNLASGVPSRFSGSGSGTDFTLTINSLEAEDAATYYCHHWSNTQWTFGGGTKVEIKRTVAAPSVFIFPPSDEQLKSGTASVVCLLNNFYPREAKVQWKVDNALQSGNSQESVTEQDSKDSTYSLSSTLTLSKADYEKHKVYACEVTHQGLSSPVTKSFNRGEC heavy: QVQLVQSGAEVKKPGSSVKVSCKASGYTFTNYFMNWVRQAPGQGLEWMGRVDPEQGRADYAEKFKKRVTITADKSTSTAYMELSSLRSEDTAVYYCARRAMDNYGFAYWGQGTLVTVSS[human IgG1 constant region with changes left out here]	not detected	not detected
